# From the supplement of paper PMC11417369
# ± gives the standard deviation of the averaged measurements. This is one part of the list.
# System: PfAP2-LT AP2 domain (GST-tagged)
# Assay: gcPBM binding intensity (ln(normalized median fluorescence intensity)); higher = stronger DNA binding
# Summary of the method: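 GST-tagged P. falciparum DNA-binding domains produced in E. coli were incubated for 1 h on an Agilent 4 × 180k array of primer-extended double-stranded 36-bp intergenic genomic probes with negative controls. Binding intensity is the highest Masliner-normalised natural-log median intensity across replicate spots of either probe orientation, with bound protein detected by Alexa488 anti-GST antibody at 488 nm.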
row,Sequence,gcPBM binding intensity (ln)
1,AATATCTAAAATGTGTGTACATAATATTTTTAATAT [XGTACX_site3831],8.89 ± 0.45
2,GTGGTTATATATTAAGTGCATATTATAATTTTAAAC,8.74 ± 0.32
3,ATAGATAAAAAATTATTTATTTAGAATTTTTATGTA [CACACA_negctrl_site400],8.14 ± 0.52
4,TGTATAAATAAATGCGTACACACTAATAAAAAAAAA [CACACA_site858],9.09 ± 0.49
5,CAACTTTTTGAAAATTGTACATGACATATATATATA [XGTACX_site260],8.75 ± 0.37
6,TTATGTAAATAATTTTGTACTTAAATTATTATATAA [XGTACX_site1491],8.26 ± 0.6
7,AAAAAAAATATGATGAGTACACAATAATACATGCAA [XGTACX_site6999],9.07 ± 0.38
8,TGATATTTTATTATTAAAATATATACATATATATAT [CACACA_negctrl_site1456],8.68 ± 0.49
9,ATAAAAATAAAATGGACACACATATATACCTATTTG [CACACA_site5761],9 ± 0.4
10,AAGAAAAAAAAAAAAAAAGATACTTTTTTAAAACTA [TGCATGCA_negctrl_site13],8.22 ± 0.55
11,TTATATTTTTACAAGAGTACATATATATATATATAT [XGTACX_site5383],9.27 ± 0.19
12,GTGCAATATTTATTTTGTACATATTTATCAATAAAC [XGTACX_site8297],8.62 ± 0.42
13,ACATCGATTTATATTCTGCACTGAAGAAACTACAAC [GTGCAC_site9967],8.81 ± 0.4
14,TCAAACCAGTTGATGTGTACACATATAGTAATAATT [XGTACX_site6014],9.15 ± 0.53
15,TTTATTTGATGAACATGTACAAAAAAACAAAGAACA [XGTACX_site823],8.78 ± 0.49
16,ATTAAATATATTAAATGTACATAATATATATATATA [XGTACX_site5032],8.89 ± 0.39
17,TATTTATACATAGGTGGTACTACTTTAAACAAAAAA [XGTACX_site5062],8.48 ± 0.37
18,TATATGGAGAGATATGCACACTGTATGAATGCCCCC [CACACA_site8853],9.56 ± 0.3
19,AAATAAATAATATTCACACATAAAAAAAATGGAGTT [CACACA_site4525],8.84 ± 0.45
20,TATTTACACAAAATAAAATATATTATATATATATAT [TGCATGCA_negctrl_site381],8.69 ± 0.23
21,TTGCACAGATTAATCAAAAATTTTAAACCAAATATA [XGTACX_negctrl_site38],8.43 ± 0.49
22,AGAATAGAATAAAAAACACACATTTACAACATTATT [CACACA_site3894],9.04 ± 0.45

row,Sequence,gcPBM binding intensity (ln)
1,GTATTTAGATGATTAACACACATATGTGTATTAATA [CACACA_site6733],8.88 ± 0.33
2,ATATATTCACGTTAATGTACACATAATAAATTATAT [XGTACX_site5481],8.8 ± 0.35
3,ATATATATTATTGAATGTACATAATTATTTAATAGT [XGTACX_site4971],8.76 ± 0.47
4,AATTATATTGGTTGTAGTACTAAAAGTAAGTTAATG [XGTACX_site33],8.87 ± 0.45
5,TATTCACTGATATGTTGTACATAAAAAAAATTAAAT [XGTACX_site6128],8.57 ± 0.43
6,CACGCACGCACATACACACACATACACATATAAATA [CACACA_site6907],9.72 ± 0.45
7,ATGTTGTTCATAAATATATTATTTTTAAATGTACAA [GTGCAC_negctrl_site507],8.4 ± 0.34
8,CATACACCCCAACACACACACACACCCATATATAAT [CACACA_site8097],10.3 ± 0.37
9,AAAAAAAAAAAAAAAAGTACATATATTATATATATA [XGTACX_site2983],8.48 ± 0.56
10,TGAAAAAAGAAAAATACACACATATAATATAATATA [CACACA_site2255],9.02 ± 0.49
11,TTTTTTATATTGATATTTATTAAATATGAAATGTTA [GTGCAC_negctrl_site405],8.1 ± 0.45
12,TTATATAAGATATTTCGTACACATTCAAAAATTATG [XGTACX_site7375],8.45 ± 0.4
13,AATAAAATATAAGGGGGTACGGAGAAAGGATACTAT [XGTACX_site7733],9.05 ± 0.54
14,AAAAAAAAAATACAACAAAGTTAAATAAATAAATAA [GTGCAC_negctrl_site402],8.6 ± 0.56
15,AAATAAAAGGTTGAGAGTACATTTTTGTGTATGTAT [XGTACX_site5547],8.8 ± 0.46
16,ATATTTAAAAATATAGTGCAATTATTCTAATGTGTT,8.59 ± 0.42
17,ATATTTCATTAATGAACACACAAAGAGGTATATAAA [CACACA_site1519],8.91 ± 0.41
18,AGCTCTCAAAATTATTCACACGTGTCCTGTTATATA [CACACA_site5415],9.66 ± 0.35
19,TTTTTTCTTTTATGTGAAATGTAATATTGTTATATA [GTGCAC_negctrl_site715],8.51 ± 0.52
20,TGTTTATTTAATAATATTTTTTTTTTTATTATATTA [XGTACX_negctrl_site56],8.31 ± 0.54
21,AGGTGATTGATATATACACACATACCTATATTTATA [CACACA_site7348],9.07 ± 0.35
22,TTATTAAAATATTCTAGTACATATAAAAGGAGAACA [XGTACX_site4374],8.61 ± 0.28
